Laboratory results taken from PubChem BioAssay (NCI).
“And” between values parts separate entries of the source, which are not always exact repeats. Equal values may be shown once.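 Tested at 5 concentrations; 48 h exposure; 96-well plates; endpoints linearly interpolated, else capped at highest concentration. The concentration for 50% growth inhibition is given as GI50. At the TGI there is no net growth.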

system: NCI-H322M lung; experiment: NCI anticancer screen, dose series, 48 h

Structure (SMILES) | TGI | GI50
CCCCNC(=S)Nn1c(-c2ccccc2)nc2ccccc2c1=O | > 100 µM | –
O=C(CC1Sc2ccccc2NC1=O)Nc1cccc(Cl)c1 (stereo not given) | > 100 µM | –
Nn1c(Cc2ccc(Cl)cc2)n[nH]c1=O | > 100 µM | –
Clc1ccc(Cl)c(N/N=C\c2c[nH]c3ccccc23)c1 | 27.7 µM | 13.2 µM
Cc1cc(NS(=O)(=O)c2ccc(NC(=O)c3ccc4nc5ccccc5c(Nc5ccc(S(=O)(=O)N=C(N)N)cc5)c4c3)cc2)no1 | 58.4 µM | –
O=C(NCC1Nc2ccncc2S(=O)(=O)N1)c1ccc(Br)cc1 (stereo not given) | > 100 µM | –
CCCCN(CCCC)C(=Nc1ccccc1)N(CCCC)CCCC | 48.1 µM | –
COc1ccc(C(=O)/C=C/c2ccc(Cl)cc2)cc1S(N)(=O)=O | 8.1 µM | 2.04 µM
Cc1oc2nc1C(=O)NCc1nc(cs1)C(=O)N[C@H](C(C)C)c1nc(cs1)C(=O)N[C@H]2C | > 100 µM | –
CCCSc1cc(Cl)c(C)cc1S(=O)(=O)n1ccnc1OCCCN(C)C | > 100 µM | –
COc1cc(Oc2nc3ccccc3nc2C(=O)O)cc(OC)c1OC | > 100 µM | –
COc1ccc(-c2oc3ccc(C)cc3c(=O)c2O)cc1 | > 100 µM | –
COc1ccc(/C=N\N2CC(=O)N3C4C=CC(CC4)N3C2=O)cc1 (stereo not given) | > 100 µM | –
COc1ccc(C2SC(N)=Nc3c2c(C)nn3C(=O)c2ccncc2)cc1 (stereo not given) | > 100 µM | –
N#Cc1c(N)nn(C(=O)c2ccc(NC(=O)c3ccccn3)cc2)c1-c1ccc(Cl)cc1 | > 100 µM | 3.94 µM
O=c1[nH]nc(-c2ccccc2)c(-c2ccccc2)c1-n1nc(-c2ccccc2)c2ccccc2c1=O | > 100 µM | –
COc1ccc(/C=C2/SC(=Nc3c(C)nn(-c4ccccc4)c3N)NC2=O)cc1 | 25.7 µM | 3.82 µM
Cc1cc(S(=O)(=O)Nc2nc3ccsc3c(=O)n2N)c(S)cc1Cl | > 100 µM | –
O=C(CCCCCCc1nc2ccc(Br)cc2[nH]1)NO | 16.8 µM | 0.397 µM
COCn1c(C)c(C)c2c(=O)oc(=O)[nH]c21 | > 100 µM | –
COc1ccc(NC(=O)c2ccc(NC3=C(Cl)C(=O)N(Cc4ccccc4)C3=O)cc2)cc1 | 34.5 µM | 17.4 µM
Oc1nc(N/N=C/c2c[nH]c3ccccc23)[nH]c1/C=C1\C=Nc2ccccc21 | > 100 µM | –
COc1ccc(C(=O)CC2(O)C(=O)Nc3c(Cl)ccc(Cl)c32)cc1 (stereo not given) | > 100 µM | 6.16 µM
COc1ccc(C(=O)O/N=C2\CCCC\C2=C/c2ccccc2)cc1 | > 100 µM | –
CCNC(=S)N/N=C/c1cc(OC)ccc1O | > 100 µM | –

Structure (SMILES) | TGI | GI50
CC1CN(CCO)CC(C)O1 (stereo not given) | > 100 µM | –
CC(=O)N1N=C(c2c(O)ccc3ccccc23)CC1C(=O)c1ccco1 (stereo not given) | > 100 µM | –
N#Cc1c([N+](=O)[O-])cc(C(F)(F)F)cc1[N+](=O)[O-] | 31.3 µM | –
CCCCc1ccc2nc(NC(=O)OC)[nH]c2c1 | > 89 µM | 0.154 µM
COc1ccc([C@H]2c3cc(OC)c(OC)cc3C=C(C=O)C2CO)cc1OC (stereo not given in full) | > 100 µM | > 100 µM
COc1cc([C@@H]2c3cc4c(cc3[C@H](OC3OC5COC(c6ccccc6)OC5C(O)C3O)[C@H]3COC(=O)[C@H]23)OCO4)cc(OC)c1OC (stereo not given in full) | 20.6 µM | 0.522 µM
COC1CC(OC2OC(CO)C(O)C(O)C2O)/C(=C\C#N)C(O)C1OC (stereo not given) | > 100 µM | –
Brc1ccc2c(-c3nc(-c4c[nH]c5ccccc45)cs3)c[nH]c2c1 | 97.8 µM | –
CCOC(=O)C(=[N+]=[N-])C(=O)C[N+]12CCN(CC1)CC2 | > 100 µM | –
CCc1cc(C(N)=O)ccc1-n1nc(C(C)C)c2c(-n3cnc(-c4cnn(C)c4)c3)ccnc21 | > 100 µM | 12.6 µM
O=c1ccc2nc(-c3ccccc3)nn(-c3ccccc3)c-2c1 | 30.9 µM | 16.9 µM
N#CCCNCCN(CCN(C(=O)Nc1ccccc1)c1ccccc1)C(=O)Nc1ccccc1 | > 100 µM | –
CC1(CCCC2(C)CCNC2=O)OCCO1 (stereo not given) | > 10 µM | –
CC/C=C/[C@@H]1C=C[C@@H]2CCC[C@H]2[C@@H]1CC[C@H](O)[C@H](C)N | 3.7 µM | 1.63 µM
CCN1CCC(C(=O)Nc2n[nH]c3nnc(-c4cccc(F)c4F)cc23)CC1 | > 25 µM | 19.2 µM
CCCOC(=O)C1CCC(=O)N1C(=O)C(Cl)Cl (stereo not given) | > 100 µM | –
CC(C)Oc1cc(OCC(=O)O)cc(C(=O)N(CCC(N)=O)C(=O)Nc2ccc(C(=O)O)cc2OC(C)C)c1 | > 100 µM | > 100 µM
O=C1COC(c2ccccc2O)=NN1CCCN1CCCC1 | > 100 µM | –
CCCC1NC(C#N)(C#N)C(CCC)NC1(C#N)C#N (stereo not given) | > 100 µM | –
COC1OC(OC)C2C(c3c(C)cc(C)cc3C)=NOC12 (stereo not given) | > 100 µM | –
CC(C)CC(=O)NC(Nc1ccc(S(=O)(=O)Nc2ncccn2)cc1)(C(F)(F)F)C(F)(F)F | > 100 µM | –
O=[N+]([O-])C(/C(Cl)=C(/Cl)N1CCOCC1)=C1\NCCO1 | > 100 µM | –
Cc1c(-c2ccccc2)c(C#N)c2nnn(-c3ccccc3)c(=O)n12 | > 100 µM | –
CCN(CC)CCN(C)CC(C)(C)C(=O)/C=C/c1ccccc1 | 26.5 µM | –
CC(=O)NNc1nc(C)c(C(/C=C/c2ccc(/C=C/C(=N\NC(=O)c3ccncc3)c3sc(NNC(C)=O)nc3C)cc2)=N/NC(=O)c2ccncc2)s1 | > 100 µM | –

Structure (SMILES) | TGI | GI50
O=S(=O)(c1ccccc1)n1c(C(O)c2ccncc2)cc2ccccc21 (stereo not given) | > 100 µM | –
C=CCCc1cc(OC)ccc1CN(C)C(C)(C)CO | > 100 µM | –
C#Cc1cccc(NC(=O)Nc2ccccc2NC(=O)CCl)c1 | > 82.5 µM | > 82.5 µM
CC[C@]1(O)C[C@@H]2CN(Cc3c([nH]c4ccccc34)[C@@](C(=O)OC)(c3cc4c(cc3OC)N(C)[C@H]3[C@@](O)(C(=O)OC)[C@H](OC(C)=O)[C@]5(CC)[C@@H]6C[C@@H]6CN6CC[C@]43[C@@H]65)C2)C1 | > 4.38 µM | > 1.17 µM
CN(C)N=Nc1ccc([N+](=O)[O-])cc1C(N)=O | > 100 µM | –
CC(=O)Nc1ccc(S(=O)(=O)Nc2nnc(S(N)(=O)=O)s2)cc1 | > 100 µM | –
CC(C)(C)c1cc(C(O)(C(=O)O)C(=O)O)cc(C(C)(C)C)c1O | > 100 µM | –
COc1ccccc1/C=C1\COc2ccc(O)c(O)c2C1=O | > 100 µM | 2.55 µM
COc1c(-c2cc(C)c(Cl)c(=O)[nH]2)c(O)c(OC)c2occc12 | > 100 µM | –
Nc1nc2nc3c(nc2c(=O)[nH]1)CN(c1ccc(C(=O)O)cc1)C3=O | > 100 µM | –
Cc1ccc(S(=O)(=O)NC(=O)NC(Cc2c[nH]c3ccccc23)C(=O)O)cc1 (stereo not given) | > 100 µM | –
CN(C(=O)C12C3C4(C(=O)O)C1(C(=O)N(C)C(C)(C)C)C1C2(C(=O)O)C3(C(=O)N(C)C(C)(C)C)C14C(=O)N(C)C(C)(C)C)C(C)(C)C (stereo not given) | > 100 µM | –
CC(=O)O[C@@H]1C=CC(=O)C2(CC(=O)O[C@@H]2/C=C(\C)CCC=C(C)C)C1 (stereo not given in full) | 5.14 µM | 2.15 µM
CN(C)CCCn1cnc2ncccc2c1=O | > 100 µM | –
Cc1cccc2c1C(=O)C1(Cc3ccccc3C1=O)C2 (stereo not given) | > 100 µM | –
Cc1cc(O)c(C(C)C)cc1NC(=O)Nc1cccc2ccccc12 | 30 µM | –
O=C(Nc1ccc(Cl)cc1)NS(=O)(=O)c1ccc2c(c1)CCC2 | > 95.6 µM and 40.1 µg/mL | 19.7 µg/mL
COC(=O)C1=C(O)C(O)=C(C(=O)OC)CC1 | > 100 µM | –
CCNc1nc(N)c(C(=O)c2ccc(Cl)cc2)s1 | > 100 µM | –
CC(C)(O)Cn1c(=O)c(Oc2ccc(F)cc2F)cc2cnc(NC3CCOCC3)nc21 | > 25 µM | > 25 µM
CN(C)CCCn1c(Cc2ccccc2)nc2cc(C(F)(F)F)ccc21 | 49.9 µM | –
CC(=O)Oc1c(-c2ccccc2)[nH]c2cc([N+](=O)[O-])c(/C(Cl)=C/c3ccccc3)cc12 | 81.9 µM | –
CCSc1ncnc2c(C3OC(CO)C(O)C3O)nsc12 (stereo not given) | > 100 µM | –
COC(=O)C1=CC(=O)C(C(=O)Nc2ccc(OC)cc2)C(c2ccccc2)O1 (stereo not given) | > 100 µM | –
C=C1C(=O)OC2C1C(OC(=O)/C(=C/C)COC(C)=O)CC1(CO1)C1C(OC(=O)/C(=C/C)CO)C=C(C)C21 (stereo not given) | 18.3 µM | –

Structure (SMILES) | TGI | GI50
CSc1nc2ccccc2c(=O)n1/N=C1\C(=O)N(CN2CCOCC2)c2ccc(Cl)cc21 | > 100 µM | –
CCS[C@H]1NC(=O)C1[C@H](C)O[Si](C)(C)C(C)(C)C (stereo not given in full) | > 100 µM | –
COC(=O)C1Cc2c([nH]c3ccccc23)[C@H](CC(C)C)N1 (stereo not given in full) | > 100 µM | –
O=C(c1ccccc1)c1nnn(Cc2cccc(Cl)c2)c1C(=O)c1ccccc1 | > 100 µM | –
C1=C[C@@H]2c3ccc4cnccc4c3NC[C@@H]2C1 | > 100 µM | –
Cc1cc(O)c2c(c1)C[C@@H](O)C1=C2C(=O)c2c(O)ccc(OC3CC(O)C(OC4CC(OC5CCC(OC6CC(O)C(OC7CC(OC8CCC(O)C(C)O8)C(O)C(C)O7)C(C)O6)C(C)O5)C(O)C(C)O4)C(C)O3)c2C1=O (stereo not given in full) | – | 1.74 µM
CC(C)OC(=O)c1ccc(NCC2=CC(=O)C=CC2=O)cc1Cl | > 100 µM | –
O=C1NN=C(c2ccc(Cl)cc2)CC1C1C(=O)N(c2ccccc2)N=C1c1ccccc1 (stereo not given) | 64.2 µM | –
CC1=NN(c2cccc(Cl)c2)C2(C1)C(Cl)C(=O)N2c1nc2ccccc2s1 (stereo not given) | > 100 µM | –
CC(=O)Nc1ccc2c(C(=O)O)c(C)c(=O)[nH]c2n1 | > 100 µM | –
O=C(Cn1ccnc1[N+](=O)[O-])NCCO | > 100 µM | –
Cc1ccc(CCC(=O)Nc2ncc(Cc3cc(Cl)ccc3Cl)s2)o1 | > 100 µM | 0.825 µM
COc1cc(/C=C2\C[C@H]3[C@@H]4CC=C5C[C@@H](N6CCCC6)CC[C@]5(C)[C@H]4CC[C@]3(C)[C@H]2O)cc(OC)c1OC | 29.6 µM | –
c1ccc2c(c1)c1c(n2CCOCCN2CCCCC2)CCCC1 | 28.8 µM | –
CC/C(=C(\c1ccccc1)c1ccc(OCCN(C)C)cc1)c1ccccc1 | – | 8.18 µM
CC1(C)C2CCC1(CS(=O)(=O)Nc1ccccc1)C(=O)C2 (stereo not given) | > 100 µM | –
CN1CCC(O)C(CNC23CC4CC(CC(C4)C2)C3)C1 (stereo not given) | > 100 µM | –
Cc1nc2c(cnn2-c2ccnc3c(C(F)(F)F)cccc23)c(=O)o1 | > 100 µM | > 100 µM
COc1cc[c]([Hg][Cl])cc1 | 30.3 µM | 15.6 µM
O=C(CCc1cccc(O)c1)NCCc1cccc(O)c1 | > 100 µM | –
C=C1C(=O)O[C@@H]2[C@@H]3O[C@@](C)(CC/C=C(\C)CCC[C@@H]2C)[C@H](O)C[C@@H]13 | 31.4 µM | 15.2 µM
Cc1nc2c(cc1C(=O)NN)c(=O)n(C)c(=O)n2C | > 100 µM | –
O=P(O)(O)OC1C(OP(=O)(O)O)C(OP(=O)(O)O)C(OP(=O)(O)O)C(OP(=O)(O)O)C1OP(=O)(O)O (stereo not given) | > 2000 µM | > 2000 µM
COc1ccc2oc(S(=O)(=O)N3CC(CCl)c4ccc([N+](=O)[O-])cc43)cc2c1 (stereo not given) | > 94.4 µM | –
